Source: article PMC7819943, “Rice protein-binding microarrays: a tool to detect cis-acting elements near promoter regions in rice”
This is one part of the list.

target: T1, OsWOX13 (Oryza sativa, UniProt Q5QMM3 1-267); assay: protein-binding microarray (RPBM); PBS, 2% BSA, 51.3 ng/ul salmon testes DNA, 50 uM zinc acetate, 200 nM TF, 25 C, 1 h; high values mean tight binding; conditions: protein: recombinant; tags: N-terminal polyhistidine and DsRed monomer fusion (pET32a); label: CyDye5-dUTP incorporated in the synthesized complementary strand; 3' TTTTT single-stranded linker to array surface; dsDNA, one strand shown
T1 sequence: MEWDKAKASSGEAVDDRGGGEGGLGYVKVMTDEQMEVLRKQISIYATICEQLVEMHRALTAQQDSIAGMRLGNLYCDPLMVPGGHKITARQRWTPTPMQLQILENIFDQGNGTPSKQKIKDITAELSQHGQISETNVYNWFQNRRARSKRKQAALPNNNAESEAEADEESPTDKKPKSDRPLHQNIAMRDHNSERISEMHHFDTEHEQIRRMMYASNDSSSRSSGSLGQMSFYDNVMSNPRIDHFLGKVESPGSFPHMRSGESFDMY
In short: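 Binding signal here means per-feature fluorescence intensity in arbitrary units. The values were read on an Axon 4000B scanner after a custom Agilent array, double-stranded by primer extension with Cy5-dUTP, was incubated with 200 nM protein at 25 °C for 1 h in PBS with 2% BSA, salmon testes DNA and 50 µM zinc acetate, then washed. The proteins were transcription factors with an N-terminal polyhistidine tag and DsRed, expressed in E. coli BL21-CodonPlus and purified on Ni–NTA.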

| Sequence | binding signal |
| --- | --- |
| ACCATTTAATAATTAACTCGCACTCCACTTTTATCCAACACGGAGTCACCTAGTGCAG | 19400 fluorescence intensity (a.u.) |
| GAGTGAGAGATTGAATAACCACTAAATGAATATTCTCGAACGGAGTCACCTAGTGCAG | 15400 fluorescence intensity (a.u.) |
| GCAAGGAAAATAATTGATCATTGTTCATGAGTGTCGTGTTCGGAGTCACCTAGTGCAG | 7320 fluorescence intensity (a.u.) |
| TGTAATATATTGACATGCAATCATTTTGCGCATTCGTGAACGGAGTCACCTAGTGCAG | 21400 fluorescence intensity (a.u.) |
| ATTAATTATGCTGTACTATTCTTTGTTTTCAGAAATTGAACGGAGTCACCTAGTGCAG | 13600 fluorescence intensity (a.u.) |
| CTAGATGTCCTTAATTTCAACTTGCTCGATCGTGGTCCATCGGAGTCACCTAGTGCAG | 3470 fluorescence intensity (a.u.) |
| TGGTCCTTTACATTGCAATTAATTTGTTTGGAATTTATTACGGAGTCACCTAGTGCAG | 8240 fluorescence intensity (a.u.) |
| CTTGATCAATTCAATTTTGCACAACGTCCATCTTTGGCATCGGAGTCACCTAGTGCAG | 16400 fluorescence intensity (a.u.) |
| ATATATAAATTTCGGGCCAAATTAGATGATGGGTATAGAACGGAGTCACCTAGTGCAG | 7130 fluorescence intensity (a.u.) |
| CTAGCGCTGATTTTGTGATGTGATGTCTCTCTTGTCTCCACGGAGTCACCTAGTGCAG | 5850 fluorescence intensity (a.u.) |
| TGGGTAAATAGGATTGAAGCAAAATAGGTGAGGAAGCCAACGGAGTCACCTAGTGCAG | 3790 fluorescence intensity (a.u.) |
| GATGAAACATATATTGACTGTAACATGTAGATTACATGATCGGAGTCACCTAGTGCAG | 6110 fluorescence intensity (a.u.) |
| AGTTATCATTTAATTAATCATATGCTAATGAGCCACCGCACGGAGTCACCTAGTGCAG | 13600 fluorescence intensity (a.u.) |
| AATGTTATCAATCATGTAAGTTCCATATATCAAATCAAACCGGAGTCACCTAGTGCAG | 16500 fluorescence intensity (a.u.) |
| CAATTTACAATAATTAATTTATTGTTAACTCTCGAGTATTCGGAGTCACCTAGTGCAG | 28700 fluorescence intensity (a.u.) |
| TGTTGATTATAATTAAACACAACAAACAGACTCGAAGCAACGGAGTCACCTAGTGCAG | 48200 fluorescence intensity (a.u.) |
| TTTAATGGCAAAATTGATGGTGCCAAACCGAGTCAAACTTCGGAGTCACCTAGTGCAG | 27700 fluorescence intensity (a.u.) |
| AGATAATTTGTGATTGATGTCATAGTAGTAGAGAAAACCACGGAGTCACCTAGTGCAG | 46800 fluorescence intensity (a.u.) |
| ATTAATTAAAGGAGGAAACGCAGGGAAAGACATGGGTATACGGAGTCACCTAGTGCAG | 6230 fluorescence intensity (a.u.) |
| GTTTGCTAATTAACGCGGGCAAGATCGAACACGGCCATGTCGGAGTCACCTAGTGCAG | 17000 fluorescence intensity (a.u.) |
| TTAAATTATTCTTTTAATAAATAAAACGAACGATACAATGCGGAGTCACCTAGTGCAG | 11300 fluorescence intensity (a.u.) |

| Sequence | binding signal |
| --- | --- |
| AGCCATAATTTATACTAATTAACAATAAAATAGGGTAATTCGGAGTCACCTAGTGCAG | 33200 fluorescence intensity (a.u.) |
| CTTCCAAATTAACACGATTCTTCTTGCTGCGTTTGCTGATCGGAGTCACCTAGTGCAG | 4670 fluorescence intensity (a.u.) |
| TGCAATGATTATTCAGAAGTGGATTATGAATCATGTTTAACGGAGTCACCTAGTGCAG | 8930 fluorescence intensity (a.u.) |
| ACCATGTCATTATAATTTTATAAAATTTAAGATATGATATCGGAGTCACCTAGTGCAG | 5070 fluorescence intensity (a.u.) |
| GGGTTGTTAATTGTATTGTATTTCTATCACAATTATGATTCGGAGTCACCTAGTGCAG | 17000 fluorescence intensity (a.u.) |
| AAAAGCCAATCAGGGCCCGTGCGTGCCAGCAAGTATTATGCGGAGTCACCTAGTGCAG | 3620 fluorescence intensity (a.u.) |
| TTTGATTTGTTAATCCAGCTAGTCGTGGGGAATAGTGAAGCGGAGTCACCTAGTGCAG | 42700 fluorescence intensity (a.u.) |
| GGAGGTGATGCATAAATCAATTCAAAATGTAACCGCGTGACGGAGTCACCTAGTGCAG | 4890 fluorescence intensity (a.u.) |
| CCTGATTTTGTAAGTTAAAGGATATGGTATGATGTTTCTGCGGAGTCACCTAGTGCAG | 25500 fluorescence intensity (a.u.) |
| CCCTAAATCATCAATATCAACAGAGATGAAACAACAATGTCGGAGTCACCTAGTGCAG | 3890 fluorescence intensity (a.u.) |
| TCATCAAATCAATAATTGATTATATTTTCAAAATAAATTTCGGAGTCACCTAGTGCAG | 19700 fluorescence intensity (a.u.) |
| TTAATTATTTGAGCAAATTTAATGGGATGAGGGAATGATGCGGAGTCACCTAGTGCAG | 24800 fluorescence intensity (a.u.) |
| CATCTAAATTAGTACGAATCATACTCAGATATCCATAATACGGAGTCACCTAGTGCAG | 9670 fluorescence intensity (a.u.) |
| CTTATCCGGCTAACTGACGATAATTATCTTTGAATGCAACCGGAGTCACCTAGTGCAG | 13900 fluorescence intensity (a.u.) |
| GAAAATGTTCCATCTGATTATAAATTATTATATTTTGGGACGGAGTCACCTAGTGCAG | 4000 fluorescence intensity (a.u.) |
| AACCCTAATCACGCCTAAAAGATATTTATCCCCATCAAACCGGAGTCACCTAGTGCAG | 7220 fluorescence intensity (a.u.) |
| GCTTTATTGAAACTCAATCAATTAAACTAAGATGATAAAACGGAGTCACCTAGTGCAG | 8520 fluorescence intensity (a.u.) |
| ATCAAGTGATTATTGCTACTGTCCTTTCAACTTGTGCTCACGGAGTCACCTAGTGCAG | 15700 fluorescence intensity (a.u.) |
| ATTAGATCAACCAGATTGACTGATCACTTGGGCATGTTGGCGGAGTCACCTAGTGCAG | 19700 fluorescence intensity (a.u.) |
| TCATGATTTCTAATATATATATATATATATTTAAGTGAATCGGAGTCACCTAGTGCAG | 8640 fluorescence intensity (a.u.) |
| TGGTTAAATGTCAATTTTCTCGTTGGGAGTTGGGAGGGATCGGAGTCACCTAGTGCAG | 18500 fluorescence intensity (a.u.) |
